The results in this text go back to PubChem BioAssay AID1745853 (National Center for Advancing Translational Sciences (NCATS), 2022).

This is one part of the list. Further columns of the screen follow, without active or inactive calls.

Holding throughout (experiment): Primary Screen for Target Class Profiling of Small Molecule Inhibitors of Methyltransferases
The target of test [1] is Glycine N-methyltransferase (Homo sapiens) (UniProt Q14749). Conditions: purified enzyme, MTase-Glo SAH luminescence; measured here: GNMT inhibition; at 40 µM; stronger effect = lower value. The procedure, abridged:
(§1)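 Each enzyme was reacted with SAM and its substrate, with compounds tested once at 40 uM; SAH formed was read by MTase-Glo luminescence.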

Test [2] addresses Guanidinoacetate N-methyltransferase (Homo sapiens) (UniProt Q14353). Conditions: purified enzyme, MTase-Glo SAH luminescence; measured here: GAMT inhibition; at 40 µM; stronger effect = lower value. The procedure, abridged:
as §1

In test [3] the target is Histamine N-methyltransferase (Homo sapiens) (UniProt P50135). The conditions noted are these: purified enzyme, MTase-Glo SAH luminescence; measured here: HNMT inhibition; at 40 µM; stronger effect = lower value. The procedure, abridged: as §1
The target in test [4] is Nicotinamide N-methyltransferase (Homo sapiens) (UniProt P40261). Conditions: purified enzyme, MTase-Glo SAH luminescence; measured here: NNMT inhibition; at 40 µM; stronger effect = lower value. The procedure, abridged: as §1
Test [5] addresses Phenylethanolamine N-methyltransferase (Homo sapiens) (UniProt P11086). The conditions noted are these: purified enzyme, MTase-Glo SAH luminescence; measured here: PNMT inhibition; at 40 µM; stronger effect = lower value. The procedure, abridged: as §1
% is set by controls: 0 for no effect and ±100 for the full control effect.

Take `COc1ccc(NS(=O)(=O)c2cc3[nH]c(=O)[nH]c3cc2C)cc1Cl`: the activity change, negative = inhibition in test [1] is 13.5%; in test [2], 1.55%; in test [3], 14.1%; in test [4], -2.53%; in test [5], -0.032%.

Turning to `O=C(CCc1nnc2n(Cc3ccc(Cl)cc3)c(=O)c3ccccc3n12)NCc1ccc(F)cc1`, the activity change, negative = inhibition came to 0.76% in test [1]; 0.651% in test [2]; 9.29% in test [3]; 15.8% in test [4]; 4.78% in test [5].

Consider `O=C(C1CCCC1)N1CC2(CCN(Cc3ccc(Cl)cc3)C2)Cc2ccccc21` (stereo not given), for which the activity change, negative = inhibition in test [1] was -2.43%; in test [2] it was -3.11%; in test [3], -1.81%; in test [4], -6.79%; in test [5], -1.23%.

For the compound `COc1ccccc1CN1C(=O)c2cc(-c3cccs3)nn2CC1(C)C(=O)NC1CCCCCC1` (stereo not given), the activity change, negative = inhibition in test [1] is 4.23%; in test [2] it was 1.25%; in test [3], 3.81%; in test [4], -2.47%; in test [5], 2.6%.

Consider `CC(=O)Nc1c2n(c3ccc(F)cc13)CC(C)(C(=O)NCCC(C)C)N(CCC(C)C)C2=O` (stereo not given), for which the activity change, negative = inhibition in test [1] is 2.82%; in test [2] it was 0.023%; in test [3] it was 5.96%; in test [4], 5.31%; in test [5], 0.18%.

Turning to `O=C(Cn1ccc2cc(S(=O)(=O)N3CCCC3)ccc21)NCCc1ccco1`, the activity change, negative = inhibition in test [1] was 2.38%; in test [2] it was 4.16%; in test [3], 4.06%; in test [4], 4.02%; in test [5] it was -0.656%.

With `CCC(=O)N1CCc2sc(C(=O)N3CCN(c4cccc(Cl)c4)CC3)cc2C1`, the activity change, negative = inhibition in test [1] was -7.78%; in test [2], -2.67%; in test [3], -3.98%; in test [4] it was -7.63%; in test [5], -0.397%.

On to `CC(C)(C)NC(=O)[C@@H]1CN(Cc2cccnc2)CCN1C[C@@H](O)C[C@@H](Cc1ccccc1)C(=O)N[C@H]1c2ccccc2C[C@H]1O`, for which the activity change, negative = inhibition was 4.05% in test [1]; 4.6% in test [2]; 11.6% in test [3]; -11.7% in test [4]; 0.625% in test [5].

As to `C=CC(C)(C)O[C@@H]1O[C@H](CO[C@@H]2OC[C@](O)(CO)[C@H]2O)[C@@H](O)[C@H](O)[C@H]1O`, the activity change, negative = inhibition in test [1] is 0%; in test [2], 3.84%; in test [3], 6.51%; in test [4], -4.82%; in test [5], 6.07%.

As to `CC(=O)O[C@H]1CC[C@]2(C)[C@H]3CC[C@]4(C)Oc5oc(C)cc(=O)c5C[C@H]4[C@]3(C)CC[C@H]2C1(C)C`, the activity change, negative = inhibition was -0.126% in test [1]; -1.35% in test [2]; -2.3% in test [3]; -19.2% in test [4]; 0.228% in test [5].

Regarding `CC(C)Cn1c(=O)c2ccccc2n2c(=O)n(CC(=O)NCc3ccccc3)nc12`, the activity change, negative = inhibition was -0.702% in test [1]; 0% in test [2]; 3.72% in test [3]; -1.66% in test [4]; -0.954% in test [5].

In the case of `O=C(O)c1ccccc1Nc1cccc(OCc2ccc3ccccc3n2)c1`, the activity change, negative = inhibition in test [1] is -24.9%; in test [2] it was 11.3%; in test [3] it was 1.03%; in test [4] it was -9.46%; in test [5], 0.693%.

Take `CC1(C(=O)NC2CCCCC2)Cn2c(nc3ccccc32)C(=O)N1Cc1ccccc1` (stereo not given): the activity change, negative = inhibition in test [1] was -0.325%; in test [2], 4.18%; in test [3] it was 3.42%; in test [4], -3.74%; in test [5], 0.501%.

Consider `Cc1ccc(CN2CCC([C@@H]3CNC[C@H]3CO)CC2)s1`, for which the activity change, negative = inhibition in test [1] is -3.27%; in test [2] it was -2.37%; in test [3], -9.31%; in test [4] it was -6.33%; in test [5] it was -3.13%.

As for `OC[C@@]1(O)CO[C@@H](OC[C@H]2O[C@@H](OCc3ccccc3)[C@H](O)[C@@H](O)[C@@H]2O)[C@@H]1O`, the activity change, negative = inhibition is 4.15% in test [1]; 7.06% in test [2]; 7.76% in test [3]; -4.31% in test [4]; 3.05% in test [5].

As to `COc1cccc(C2c3cccn3-c3sc4c(c3CN2C(=O)Nc2cc(C)ccc2OC)CCCC4)c1` (stereo not given), the activity change, negative = inhibition came to 2.13% in test [1]; 0.059% in test [2]; 3.93% in test [3]; 4.24% in test [4]; 5.82% in test [5].

In the case of `COc1ccc2cc1Oc1ccc(cc1)C[C@H]1c3c(cc4c(c3Oc3cc5c(cc3OC)CCN(C)[C@@H]5C2)OCO4)CCN1C`, the activity change, negative = inhibition in test [1] was -34.9%; in test [2] it was -5.64%; in test [3], -9.21%; in test [4], -45.3%; in test [5], -10.8%.

In the case of `COc1cccc(CCNC(=O)c2c(C)noc2-c2ccco2)c1`, the activity change, negative = inhibition was -8.4% in test [1]; -13.4% in test [2]; -5.29% in test [3]; -24.5% in test [4]; -9.03% in test [5].

As for `O=C(Nc1ccccc1)NC1CCN(CCn2nc3n(c2=O)CCCC3)C1` (stereo not given), the activity change, negative = inhibition in test [1] is -4.31%; in test [2] it was -2.78%; in test [3], -0.7%; in test [4] it was -4.8%; in test [5], -6.28%.

Regarding `COc1cc(C(O)C(=O)O)ccc1O` (stereo not given), the activity change, negative = inhibition in test [1] was -0.681%; in test [2], 7.91%; in test [3], 3.36%; in test [4], -6.41%; in test [5], 2.31%.

With `COc1ccc(CNC(=O)C2CCN(C(=O)c3oc4cc5sc(N(C)C)nc5cc4c3C)CC2)cc1`, the activity change, negative = inhibition was -1.82% in test [1]; 4.75% in test [2]; -0.865% in test [3]; 4.33% in test [4]; -1.64% in test [5].

On to `CO[C@H]1/C=C/C=C/C=C/C[C@H](OC(=O)[C@@H](C)NC(=O)C2CCCCC2)[C@H](C)[C@@H](O)/C(C)=C/CCc2cc(O)cc(c2)NC(=O)C1`, for which the activity change, negative = inhibition was -1.7% in test [1]; 2.91% in test [2]; 7.66% in test [3]; -10.1% in test [4]; -7.14% in test [5].

For the compound `CCc1ccccc1NC(=O)CN(C)S(=O)(=O)c1ccc2[nH]c3c(c2c1)CCCC3`, the activity change, negative = inhibition is -8.89% in test [1]; 2.26% in test [2]; 0.223% in test [3]; -1.38% in test [4]; -0.563% in test [5].

Regarding `COc1cccc(N2C(=O)CSc3c(c4ccccc4n3C)C2C(=O)NCCCOC(C)C)c1` (stereo not given), the activity change, negative = inhibition is 4.67% in test [1]; 0.069% in test [2]; -0.176% in test [3]; -4.61% in test [4]; 2.81% in test [5].

`Cc1cccc(-c2nnn3c2nc(N2CCSCC2)c2cc(Cl)ccc23)c1`: the activity change, negative = inhibition stood at 1.91% in test [1]; 0.795% in test [2]; 10.8% in test [3]; 11.6% in test [4]; 3.25% in test [5].

With `CN(C)C(=O)NC1CCC(CCN2CCN(c3cccc(Cl)c3Cl)CC2)CC1` (stereo not given), the activity change, negative = inhibition in test [1] is -1.55%; in test [2], -4.88%; in test [3], 4.03%; in test [4] it was -15.8%; in test [5], -1.12%.

As to `CC(C)CCn1c(=O)c2ccc(C(=O)NC(C)C)cc2n2c(=O)n(CC(=O)Nc3ccc(F)cc3)nc12`, the activity change, negative = inhibition is 2.37% in test [1]; 2.21% in test [2]; 0.213% in test [3]; -6.32% in test [4]; 0.05% in test [5].

Consider `CC1CCCCC1NC(=O)C1(C)Cn2c(ccc2-c2ccco2)C(=O)N1Cc1ccccc1F` (stereo not given), for which the activity change, negative = inhibition was 0.194% in test [1]; 0% in test [2]; 3.2% in test [3]; -0.471% in test [4]; -2.92% in test [5].

Consider `CN(C)CCC(c1ccc(Cl)cc1)c1ccccn1` (stereo not given), for which the activity change, negative = inhibition in test [1] was 3.13%; in test [2], 7.73%; in test [3], -8.7%; in test [4], -7.7%; in test [5], -0.714%.

Turning to `Cc1ccc(OC(C)c2nc(-c3cccnn3)no2)cc1C` (stereo not given), the activity change, negative = inhibition was -2.98% in test [1]; -3.32% in test [2]; -0.834% in test [3]; -6.8% in test [4]; -6.13% in test [5].

As for `C/C=C(\C)C(=O)O[C@H]1C[C@](C)(O)[C@H]2CC=C(C)[C@H]2[C@@H]2OC(=O)[C@H](C)[C@H]21`, the activity change, negative = inhibition was -4.48% in test [1]; -9.56% in test [2]; 3% in test [3]; -20.5% in test [4]; -6.15% in test [5].

`COc1ccc(CN2C(=O)c3ccccc3CC2(C)C(=O)NC2CCCCC2)cc1` (stereo not given): the activity change, negative = inhibition was -2.91% in test [1]; 2.49% in test [2]; 11.3% in test [3]; 9.65% in test [4]; 3.26% in test [5].

As to `CCC(C)NC(=O)c1ccc2c(=O)n(CC(C)C)c3nn(Cc4ccc(F)cc4)c(=O)n3c2c1` (stereo not given), the activity change, negative = inhibition in test [1] is -1.68%; in test [2] it was 3.6%; in test [3], 3.79%; in test [4], 1.33%; in test [5], -0.898%.

Consider `C[C@H](O)C(=O)C1=Nc2c(nc(N)[nH]c2=O)NC1`, for which the activity change, negative = inhibition is 4.73% in test [1]; 8.86% in test [2]; 10.8% in test [3]; -6.64% in test [4]; -1.24% in test [5].

Consider `CC(C)CNC(=O)c1ccc2c(=O)n(CC(C)C)c3nn(Cc4cccc(Cl)c4)c(=O)n3c2c1`, for which the activity change, negative = inhibition stood at 3.71% in test [1]; 5.46% in test [2]; 6.05% in test [3]; 6.89% in test [4]; 4.37% in test [5].

Consider `Fc1ccccc1CN1CCCC2(CCN(c3cnccn3)C2)C1` (stereo not given), for which the activity change, negative = inhibition in test [1] is -1.67%; in test [2] it was -1.86%; in test [3], -2.22%; in test [4], -17.5%; in test [5] it was -2.23%.

On to `CN1C[C@@H](NC(=O)CC(C)(C)CC(=O)O)C[C@H]1c1nc(-c2ccccn2)no1`, for which the activity change, negative = inhibition in test [1] is -2.11%; in test [2], -1.71%; in test [3] it was -3.44%; in test [4], -6.39%; in test [5] it was 12.5%.
